Data on 121 sequences can be found in the supplement of paper PMC10126150.

In the data set the test system is ATP. Nature of the data set: switch fluorescence ratio, 500 uM ATP over buffer (Cy3 cluster intensity, sum of 5 cycles each) (fold (ratio)); higher = stronger signal-on switching upon ATP binding; sequences stand for … in TCGTCGGCAGCGTCAGATGTGTATAAGAGACAGTTTTTTTTTTTTTTTTTTTTTTTTT…TC. As to conditions: aptamer strand: ATP DNA aptamer (quencher-CACCTGGGGGAGTATTGCGGAGGAAGG + anchor), 100 nM annealed; ATP concentration: 500 uM; one replicate. In short, it runs like this:
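Between each of five buffer/ATP cycles, the flow-cell was stripped with NaOH and re-annealed. Each cycle imaged Cy3-labelled switching-strand clusters, annealed to 100 nM quencher-labelled ATP aptamer on a modified Illumina MiSeq flow-cell, first in selection buffer and then after 15 min with 500 uM ATP at 22 °C. The fluorescence ratio is summed target-cycle over summed buffer-cycle Cy3 intensity per cluster, averaged per switch-domain sequence, with clusters outside 100-1000 RFU excluded.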

Values marked as one replicate rest on one cluster of the flow cell; about a third of the high ones do not repeat.
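Note: ATP exposure 15 min at 22 °C before imaging.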

Take TTTGCCTCC: the switch fluorescence ratio was 1.26.

Consider CTTAGGGAAC, for which the switch fluorescence ratio was 3.1.

On to AGTTATAT, for which the switch fluorescence ratio is 0.984.

Turning to TGACTGAGCT, the switch fluorescence ratio was found to be 1.04.

Take AGATTGGCGT: the switch fluorescence ratio was found to be 1.01.

As for ATTGGCTTGA, the switch fluorescence ratio was 1.04.

Consider AGGCGAACTG, for which the switch fluorescence ratio was determined as 1.11.

As to CCCGTTATAG, the switch fluorescence ratio came to 2.79.

For the sequence AGATGCCTTA, the switch fluorescence ratio was 0.98.

As for GTGCCTATGG, the switch fluorescence ratio came out at 0.972.

Consider TCTTCCTCG, for which the switch fluorescence ratio came to 2.32.

On to ATTGGTAACT, for which the switch fluorescence ratio worked out at 1.01.

For the sequence GTTGTTCGAC, the switch fluorescence ratio came out at 1.02.

On to CAAGAGTCAT, for which the switch fluorescence ratio is 0.991.

As for AGAAACGATC, the switch fluorescence ratio was determined as 0.989.

In the case of CGAGCAGGCT, the switch fluorescence ratio stood at 0.934.

Regarding AGAATCATAA, the switch fluorescence ratio worked out at 0.973.

For CGGTACCTTT, the switch fluorescence ratio came to 1.01.

For CAACTGAACA, the switch fluorescence ratio was determined as 1.04.

CGTATGGTGA: the switch fluorescence ratio was 1.08.

As for TTGATATAAG, the switch fluorescence ratio turned out to be 1.26.

With TGAATCTT, the switch fluorescence ratio came out at 1.04.

Consider TATGTACCTC, for which the switch fluorescence ratio was found to be 1.1.

CCTTAAGCTC: the switch fluorescence ratio came to 3.03.

In the case of CAGGAGAGGC, the switch fluorescence ratio turned out to be 0.683.

For the sequence GCGGAACTGA, the switch fluorescence ratio amounted to 0.998.

For the sequence AGACGACAGC, the switch fluorescence ratio stood at 0.974.

Regarding TTATTTCGC, the switch fluorescence ratio came out at 0.994.

GATGCCGTAA: the switch fluorescence ratio was determined as 1.06.

With AGGAATTTTG, the switch fluorescence ratio turned out to be 0.968.

For the sequence TATCGTCTAA, the switch fluorescence ratio was 1.03.

Turning to GAGTTCAATC, the switch fluorescence ratio is 0.978.

Take TTATCACAG: the switch fluorescence ratio worked out at 1.02.

Consider AGGCCGACAC, for which the switch fluorescence ratio came out at 1.08.

As for GGAGTCGCGA, the switch fluorescence ratio was found to be 1.05.

With GGTGAATTTG, the switch fluorescence ratio came out at 0.992.

Regarding CGTGCCCATC, the switch fluorescence ratio came to 1.02.

Regarding CGTATGGG, the switch fluorescence ratio turned out to be 1.03.

Consider TGAGTAAAG, for which the switch fluorescence ratio was found to be 1.05.

GCTCATCGAT: the switch fluorescence ratio was 1.02.

For the sequence GGGTCACAAG, the switch fluorescence ratio came out at 0.968.

Consider ACCGTGTAAT, for which the switch fluorescence ratio was determined as 1.03.

As to CGCCCTTAGG, the switch fluorescence ratio came to 1.05.

As for ATTAGGTTGT, the switch fluorescence ratio is 0.979.

On to CCCAACTGGA, for which the switch fluorescence ratio worked out at 1.02.

CTGAGCATTG: the switch fluorescence ratio is 1.22.

Turning to CTGGAGCGGG, the switch fluorescence ratio came to 1.35.

With GGCTGATATT, the switch fluorescence ratio was determined as 0.985.

As to CAACCCTTGC, the switch fluorescence ratio came out at 1.71.

Consider TTCCCGAGAT, for which the switch fluorescence ratio was 1.5.

As for TTTTCTGATT, the switch fluorescence ratio stood at 1.01.

On to ATCCGCGCAT, for which the switch fluorescence ratio worked out at 5.75.

Regarding ACTATGATC, the switch fluorescence ratio turned out to be 1.03.

For the sequence TATGGTGCAC, the switch fluorescence ratio was determined as 0.989.

ATGGCCCAGG: the switch fluorescence ratio came to 2.33.

As to ACAGCCAGTT, the switch fluorescence ratio worked out at 1.03.

On to TCATCAGACT, for which the switch fluorescence ratio was 0.995.

Regarding AGTAGGTGG, the switch fluorescence ratio was found to be 0.916.

Take AGACGACCCA: the switch fluorescence ratio was determined as 1.44.

Take CTCGATCGTT: the switch fluorescence ratio stood at 0.997.

As to GAAAGTGGGT, the switch fluorescence ratio was 1.01.

Regarding CATTGGAGAT, the switch fluorescence ratio was determined as 1.

TCGACTCAGC: the switch fluorescence ratio is 1.18.

Regarding CTGGACTCCC, the switch fluorescence ratio was 1.56.

Regarding ATAGGTCCTG, the switch fluorescence ratio stood at 1.01.

As to TTTTCCGAGG, the switch fluorescence ratio came to 1.09.

On to GTGTGTGACA, for which the switch fluorescence ratio was 0.99.

As for CGGAACTTAT, the switch fluorescence ratio was found to be 1.01.

Regarding TTCTCATCT, the switch fluorescence ratio is 0.993.

Take AATAGAAGGT: the switch fluorescence ratio amounted to 0.998.

For CATCTGTCTT, the switch fluorescence ratio was 1.03.

On to TTTACTGAAC, for which the switch fluorescence ratio is 1.18.

For GATAAATGT, the switch fluorescence ratio worked out at 1.02.

ACCAGATTTC: the switch fluorescence ratio worked out at 1.05.

Take ACAATATTT: the switch fluorescence ratio came to 1.02.

Regarding ACAAAGATGT, the switch fluorescence ratio is 1.02.

Consider CCCCTCTAGG, for which the switch fluorescence ratio came out at 1.24.

Regarding CAGGGAATAT, the switch fluorescence ratio amounted to 1.09.

In the case of GAAGTTCTTT, the switch fluorescence ratio is 1.02.

Regarding TGTATACTA, the switch fluorescence ratio came out at 1.03.

For TTATAACGG, the switch fluorescence ratio was 1.06.

In the case of TTTTCCAGTG, the switch fluorescence ratio worked out at 1.07.

For the sequence GATCATTTGC, the switch fluorescence ratio was found to be 0.966.

ACTCCCTGCT: the switch fluorescence ratio amounted to 1.11.

Take ATGCGCTAGG: the switch fluorescence ratio is 1.02.

AACCACTGTG: the switch fluorescence ratio was 1.04.

With ACTTAGAGGG, the switch fluorescence ratio stood at 1.01.

As for TCCGGGGCCC, the switch fluorescence ratio turned out to be 2.47.

With TAGGAGTGGA, the switch fluorescence ratio was determined as 1.07.

As to ATAGGCTGAC, the switch fluorescence ratio came to 1.07.

As to TGTAAAATCT, the switch fluorescence ratio was determined as 1.01.

Consider GAGACTGATT, for which the switch fluorescence ratio was 0.991.

For the sequence GATGTCACGG, the switch fluorescence ratio is 0.962.

Regarding ATCTCTGGG, the switch fluorescence ratio came to 0.928.

On to CGTCGCAGGG, for which the switch fluorescence ratio is 1.07.

For GAGCTGTGT, the switch fluorescence ratio was found to be 0.997.

On to AAATCCTGGT, for which the switch fluorescence ratio amounted to 1.

For the sequence CTTCGCCTAT, the switch fluorescence ratio came to 1.55.

Take TATCTGGAAA: the switch fluorescence ratio is 0.995.

On to AACGGCCTGG, for which the switch fluorescence ratio was determined as 1.01.

Consider AGGGCCACGA, for which the switch fluorescence ratio is 0.997.

For TGGGTCCTTA, the switch fluorescence ratio was determined as 0.955.

Turning to TGTTCATTGG, the switch fluorescence ratio was determined as 1.02.

As to AACGCTACAT, the switch fluorescence ratio worked out at 1.47.

With GAAACTAGCA, the switch fluorescence ratio was 1.

As for CTTGCGCCAC, the switch fluorescence ratio stood at 1.76.

GTCTACAATC: the switch fluorescence ratio stood at 1.08.

On to AGAAACAGGT, for which the switch fluorescence ratio turned out to be 0.992.

As for AACAAATGAG, the switch fluorescence ratio worked out at 1.02.

Take CTGTTAGTT: the switch fluorescence ratio is 1.02.

Consider TTGTGTAGCA, for which the switch fluorescence ratio amounted to 1.01.

Consider AACAGGCAGC, for which the switch fluorescence ratio came to 1.

As to GAAAGTTTTT, the switch fluorescence ratio came to 0.966.

As to AGTGAATACA, the switch fluorescence ratio came to 0.992.

For CCCGCATAGG, the switch fluorescence ratio is 3.27.

Regarding GACCTATCAC, the switch fluorescence ratio worked out at 1.09.

With CTGGTGTCGT, the switch fluorescence ratio stood at 0.968.

For the sequence ACTGGCCTAC, the switch fluorescence ratio was determined as 1.14.

In the case of TTCCCGCCTG, the switch fluorescence ratio was found to be 1.06.

As to TGGTACTATG, the switch fluorescence ratio was found to be 1.

For AAGTTGCGCA, the switch fluorescence ratio worked out at 1.04.
